According to PubChem BioAssay AID504333 (National Center for Advancing Translational Sciences (NCATS), 2011):
Screen size: about 360,000 compounds; about 16,000 (4.4%) were called active. The shares of active, inactive and inconclusive entries below differ from those in the screen. Calls come from the whole dose curve; as a rule, active = well fitted inhibition curve with a large enough effect; inconclusive = small, poorly fitted or top-dose-only effect; inactive = no such curve, though single readings can be large or run the other way. Potencies of inconclusive entries are doubtful fits and often do not repeat.

biological target: Bromodomain adjacent to zinc finger domain protein 2B (Homo sapiens) (UniProt Q9UIF8); test: qHTS Assay for Inhibitors of BAZ2B; details: AlphaScreen BAZ2B-H3K14Ac peptide displacement; series mostly up to 114 µM; note: nearly all actives have a fitted effect of over 60% in size
Outline: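 Multi-concentration screen (max 110 uM) measuring displacement of acetylated histone H3 peptide from BAZ2B by AlphaScreen, using 50 nM protein, 50 nM peptide and 10 ug/mL streptavidin donor plus Ni-chelate acceptor beads.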
Potency is the fitted concentration of half-maximal effect; tags give direction and shape of the fitted curve.

Sequence of UniProt Q9UIF8 (Q9UIF8 whole entry, looked up, the tested form may be a part): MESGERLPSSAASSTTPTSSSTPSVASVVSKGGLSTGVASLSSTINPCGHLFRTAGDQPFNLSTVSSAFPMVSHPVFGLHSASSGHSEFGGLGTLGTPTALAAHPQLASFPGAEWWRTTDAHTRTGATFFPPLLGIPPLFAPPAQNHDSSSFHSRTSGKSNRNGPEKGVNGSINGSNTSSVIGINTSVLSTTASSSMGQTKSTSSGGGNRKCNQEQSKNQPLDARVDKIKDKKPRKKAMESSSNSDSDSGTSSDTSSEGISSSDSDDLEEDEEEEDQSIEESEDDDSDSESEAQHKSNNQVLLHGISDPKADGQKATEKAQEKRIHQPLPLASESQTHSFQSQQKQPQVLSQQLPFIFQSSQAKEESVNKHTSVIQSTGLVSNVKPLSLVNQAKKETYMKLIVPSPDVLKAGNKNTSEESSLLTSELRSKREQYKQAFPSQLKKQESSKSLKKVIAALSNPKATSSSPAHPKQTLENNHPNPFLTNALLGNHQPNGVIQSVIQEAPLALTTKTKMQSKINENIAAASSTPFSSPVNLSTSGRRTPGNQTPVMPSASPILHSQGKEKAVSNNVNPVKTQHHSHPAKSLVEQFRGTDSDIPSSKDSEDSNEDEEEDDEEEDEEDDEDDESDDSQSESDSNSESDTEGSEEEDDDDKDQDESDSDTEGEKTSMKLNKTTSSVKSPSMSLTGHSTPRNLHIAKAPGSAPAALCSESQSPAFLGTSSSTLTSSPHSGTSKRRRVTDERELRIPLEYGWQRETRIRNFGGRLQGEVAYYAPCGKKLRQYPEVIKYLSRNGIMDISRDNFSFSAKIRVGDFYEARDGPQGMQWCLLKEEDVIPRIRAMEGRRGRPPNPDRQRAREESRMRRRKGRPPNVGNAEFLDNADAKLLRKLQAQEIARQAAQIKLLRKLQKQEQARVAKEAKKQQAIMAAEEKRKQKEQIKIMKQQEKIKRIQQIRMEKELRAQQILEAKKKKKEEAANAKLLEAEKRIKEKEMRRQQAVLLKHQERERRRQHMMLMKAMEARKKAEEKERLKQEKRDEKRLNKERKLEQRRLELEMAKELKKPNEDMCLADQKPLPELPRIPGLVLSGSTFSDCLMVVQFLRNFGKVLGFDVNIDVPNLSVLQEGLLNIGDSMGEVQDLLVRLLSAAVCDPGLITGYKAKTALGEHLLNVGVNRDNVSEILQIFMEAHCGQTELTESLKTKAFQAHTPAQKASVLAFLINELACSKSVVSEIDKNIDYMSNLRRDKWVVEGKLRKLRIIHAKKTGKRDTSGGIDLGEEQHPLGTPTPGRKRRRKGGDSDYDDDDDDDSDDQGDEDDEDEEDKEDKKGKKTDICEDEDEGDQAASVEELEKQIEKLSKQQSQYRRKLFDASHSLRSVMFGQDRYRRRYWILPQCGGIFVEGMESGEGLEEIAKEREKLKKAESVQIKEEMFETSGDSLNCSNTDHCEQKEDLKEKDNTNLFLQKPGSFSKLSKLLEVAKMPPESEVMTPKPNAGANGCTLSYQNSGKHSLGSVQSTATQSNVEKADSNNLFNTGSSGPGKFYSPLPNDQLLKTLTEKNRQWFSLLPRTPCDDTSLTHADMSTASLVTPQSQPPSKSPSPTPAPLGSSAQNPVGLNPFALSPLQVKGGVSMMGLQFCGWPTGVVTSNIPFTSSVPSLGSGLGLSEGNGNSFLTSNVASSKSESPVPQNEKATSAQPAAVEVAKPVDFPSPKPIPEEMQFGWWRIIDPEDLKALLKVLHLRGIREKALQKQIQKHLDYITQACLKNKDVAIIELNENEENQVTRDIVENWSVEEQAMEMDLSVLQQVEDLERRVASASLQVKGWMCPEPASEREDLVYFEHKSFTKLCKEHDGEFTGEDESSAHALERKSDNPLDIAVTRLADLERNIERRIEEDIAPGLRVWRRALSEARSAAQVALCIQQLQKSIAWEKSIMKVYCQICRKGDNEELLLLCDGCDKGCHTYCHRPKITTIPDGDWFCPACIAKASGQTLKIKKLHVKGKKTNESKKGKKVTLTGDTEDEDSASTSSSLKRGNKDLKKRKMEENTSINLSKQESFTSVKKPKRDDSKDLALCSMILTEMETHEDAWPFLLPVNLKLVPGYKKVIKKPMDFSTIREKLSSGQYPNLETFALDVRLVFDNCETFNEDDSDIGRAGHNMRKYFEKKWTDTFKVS

Row | Compound | Potency
1 | CCCn1c(=O)c2sccc2n2c(CCCC(=O)N3CCN(c4ccc(OC)cc4)CC3)nnc12 | inconclusive: 79.4 µM [inhibitor, single point]
2 | CCc1ccc(NC(=O)CSc2nnc(-c3cnccn3)n2Cc2ccco2)cc1 | inconclusive: 89.1 µM [inhibitor, single point]
3 | CCCN(CCC)Cc1c(C(=O)N/N=C/c2ccncc2)nnn1-c1nonc1N | inactive
4 | CC(=O)c1ccc(NC(=O)CSc2nccn2C2CCCC2)cc1 | inconclusive: 79.4 µM [inhibitor, single point]
5 | O=C(O)c1ccc(N2C(=O)/C(=C/c3ccc(-c4ccc([N+](=O)[O-])cc4)o3)C=C2c2ccccc2)cc1 | active: 11.2 µM
6 | C/C(CS(=O)(=O)c1ccc(Cl)c(Cl)c1)=N/NC(N)=S | inactive
7 | O=C(O)CSc1c2c(nc3cc(C(=O)Nc4ccc(F)c(Cl)c4)ccc13)CCCC2 | active: 50.1 µM
8 | S=C(NCCc1ccccc1)N1CCN(C(=S)NCCc2ccccc2)CC1 | inactive
9 | Cc1ccc(-c2cnc(C3CC3)o2)cc1S(=O)(=O)Nc1ccc(F)cc1Cl | inconclusive: 39.8 µM [inhibitor, partial curve]
10 | CCCCNc1c(-c2cccc(-c3cc(C(C)=O)cs3)c2)nc2cc(C)ccn12 | active: 28.2 µM
11 | COc1ccccc1-c1oc2ccccc2c1C#CCCCCO | inconclusive: 89.1 µM [inhibitor, single point]
12 | CCC(Sc1nc2nccnc2c(=O)n1Cc1ccc(Cl)cc1)C(=O)NC1CCCCC1 (stereo not given) | inactive
13 | Cc1ccc(C(=O)N2CCN(c3ccc([N+](=O)[O-])cc3-n3cccc3)CC2)cc1 | inconclusive: 15.8 µM [inhibitor, full curve]
14 | CC1(C)CC(=O)C=C(NCCN2CCN(C(=O)Nc3ccccc3)CC2)C1 | inconclusive: 89.1 µM [inhibitor, single point]
15 | COc1cccc(/C=C/C(=C2/C(=O)N(c3ccccc3)N=C2C)c2ccc(C)cc2)c1OC | inconclusive: 56.2 µM [inhibitor, partial curve, poor fit]
16 | FC(F)(F)c1ccc(N2CCOCC2)c(NC2=NCCCCC2)c1 | inconclusive: 89.1 µM [inhibitor, single point]
17 | Oc1c(C(c2ccccc2Cl)N2CCCC2)ccc2cccnc12 (stereo not given) | active: 20 µM
18 | Cc1ccccc1NC(=O)c1sc2nc3n(c(=O)c2c1C)N=C(c1ccccc1)CS3 | inconclusive: 89.1 µM [inhibitor, single point]
19 | Cc1cccc(OCCNc2ccc([N+](=O)[O-])cn2)c1 | inconclusive: 31.6 µM [inhibitor, partial curve]
20 | O=c1nc(/C=C/c2ccc(-c3ccc(F)cc3)o2)cc(C(F)(F)F)[nH]1 | inconclusive: 56.2 µM [inhibitor, partial curve]
21 | COc1ccc(C)cc1NC1(c2ccccc2)C(=O)c2ccccc2C1=O | inconclusive: 17.8 µM [inhibitor, partial curve]
22 | COc1ccccc1N1CCN(C(=O)CN(Cc2ccccc2)S(C)(=O)=O)CC1 | inactive
23 | N#C/C(=C(\O)C(F)(F)F)c1nnc2n1CCCCC2 | inconclusive: 89.1 µM [inhibitor, single point]

Row | Compound | Potency
24 | COc1ccc(N2CCN(C(=O)CCNS(=O)(=O)c3cc(Br)cnc3N)CC2)cc1 | inconclusive: 39.8 µM [inhibitor, full curve]
25 | Nc1nc(CN2CCCCCC2)nc(Nc2ccccc2)n1 | active: 10 µM
26 | CCC1CCCCN1C(=S)NC(=O)c1cc(S(=O)(=O)N2CCOCC2)ccc1C (stereo not given) | inactive
27 | O=C(N/N=C/c1ccc(-c2ccccc2[N+](=O)[O-])o1)[C@H]1C[C@@H]1c1ccccc1 | inconclusive: 25.1 µM [inhibitor, full curve]
28 | Cc1cc(C)n(-c2nnc(C)n2N)n1 | inactive
29 | COc1ccc(N2CCN(C(=O)CCCCn3c(=O)[nH]c4ccsc4c3=O)CC2)cc1 | inconclusive: 89.1 µM [inhibitor, single point]
30 | Nc1c(-c2ccccc2)cnn1-c1ccc(C(=O)O)cc1 | inactive
31 | CC(C)S(=O)(=O)c1cnc(-c2ccccn2)nc1N | active: 56.2 µM
32 | Cn1nc(C(=O)Nc2c(-c3ccccc3)nc3sccn23)c2ccccc2c1=O | inconclusive: 100 µM [inhibitor, single point]
33 | COc1ccc(Br)cc1/C=C(\C(=O)O)c1ccc(S(=O)(=O)N2CCCCC2)s1 | inconclusive: 89.1 µM [inhibitor, single point]
34 | CCOc1ccc(C2C(C(=O)c3ccco3)=C(O)C(=O)N2Cc2cccnc2)cc1OC (stereo not given) | inconclusive: 89.1 µM [inhibitor, single point]
35 | S=C(NC1CC1)NC1CCCc2ccccc21 (stereo not given) | active: 56.2 µM
36 | O=C(Nc1ccc(F)cc1F)c1ccc(-n2cnc3cccnc32)cc1 | inactive
37 | c1ccc(-c2csc(=Nc3cccnc3)n2CC2CCCO2)cc1 (stereo not given) | inconclusive: 44.7 µM [inhibitor, partial curve]
38 | CC(C)=C(NC(=O)c1ccccc1)C(=O)NC(Cc1ccccc1)C(=O)O (stereo not given) | inconclusive: 100 µM [inhibitor, single point]
39 | CC(C(=O)c1ccc(-c2ccccc2)cc1)[n+]1cccc(NC(=O)c2ccccc2)c1 (stereo not given) | inconclusive: 70.8 µM [inhibitor, partial curve]
40 | COc1ccc(-c2cc(C(F)(F)F)nc(SCCC(=O)Nc3ccc(F)cc3F)n2)cc1 | inactive
41 | COc1ccc(OC)c(/C(O)=C/C(=O)C(=O)Nc2ccccc2OC)c1 | inconclusive: 100 µM [inhibitor, single point]
42 | CN(c1ccccc1)c1ccc(/C=C(\C#N)c2nnc3n2CCCCC3)cc1[N+](=O)[O-] | active: 44.7 µM
43 | Cc1c(NC(=S)NC(NC(=O)CC(C)C)C(Cl)(Cl)Cl)c(=O)n(-c2ccccc2)n1C (stereo not given) | inactive
44 | O=C(O)c1ccc2c(c1Sc1ccccc1)C(=O)c1ccccc1C2=O | inconclusive: 50.1 µM [inhibitor, partial curve]
45 | CCOCCCNC(=O)CN1C(=O)COc2ccc(S(=O)(=O)N3CCOCC3)cc21 | inconclusive: 89.1 µM [inhibitor, single point]
